Laboratory results reported in the supplement of paper PMC4967469.
IC50 is the fitted dose that halves viability relative to control wells, and lower means more sensitive; where the fit passes the top or lowest dose, that dose stands as a limit. AUC is the area under the same curve over the 256-fold range up to the top dose, as a fraction; values near 1 show little effect. For part of these data: The top dose, if marked as inferred, is not printed in the source and was worked back from the curve model.

Columns and labels:
Assay in all cases: Viability of human cancer cell lines after 72 h of drug (GDSC screen)
WHI-P97 = compound: COc1cc2ncnc(Nc3cc(Br)c(O)c(Br)c3)c2cc1OC [WHI-P97]; conditions: top dose 10.24 µM; top dose inferred
Experimental: (§1)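 Human cancer cell lines in 384-well plates, medium with 10% serum, drug for 72 h over a 256-fold dose range (nine 2-fold or five 4-fold steps up to the top dose). Adherent lines were fixed and stained with the nucleic acid dye Syto60, suspension lines read with resazurin; signal relative to control wells, capped at 0 and 100%. One two-parameter sigmoid per drug and line, fitted in a mixed model over all curves with the slope shared within a line.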

QL-XI-92 = compound: C=CC(=O)Nc1cc(NC(=O)c2ccc(C)c(NC(=O)c3ccno3)c2)cc(C(F)(F)F)c1 [QL-XI-92]; conditions: top dose 10.24 µM; top dose inferred
Experimental: as §1

XL-184 = compound: COc1cc2nccc(Oc3ccc(NC(=O)C4(C(=O)Nc5ccc(F)cc5)CC4)cc3)c2cc1OC [XL-184]; conditions: top dose 5.12 µM; top dose inferred
Experimental: as §1

Gefitinib = compound: COc1cc2ncnc(Nc3ccc(F)c(Cl)c3)c2cc1OCCCN1CCOCC1 [Gefitinib]; conditions: top dose 0.5 µM
Experimental: as §1

EHT 1864 = compound: O=c1cc(CN2CCOCC2)occ1OCCCCCSc1ccnc2cc(C(F)(F)F)ccc12 [EHT 1864]; conditions: top dose 10 µM; top dose inferred
Experimental: as §1

NU-7441 = compound: O=c1cc(N2CCOCC2)oc2c(-c3cccc4c3sc3ccccc34)cccc12 [NU-7441]; conditions: top dose 2 µM; top dose inferred
Experimental: as §1

Phenformin = compound: N=C(N)NC(=N)NCCc1ccccc1 [Phenformin]; conditions: top dose 4000 µM; top dose inferred
Experimental: as §1

Vinorelbine = compound: CCC1=C[C@@H]2CN(C1)Cc1c([nH]c3ccccc13)[C@@](C(=O)OC)(c1cc3c(cc1OC)N(C)[C@H]1[C@@](O)(C(=O)OC)[C@H](OC(C)=O)[C@]4(CC)C=CCN5CC[C@]31[C@@H]54)C2 [Vinorelbine]; conditions: top dose 0.064 µM; top dose inferred
Experimental: as §1

AG-014699 = compound: CNCc1ccc(-c2[nH]c3cc(F)cc4c3c2CCNC4=O)cc1 [AG-014699]; conditions: top dose 5 µM; top dose inferred
Experimental: as §1

Cell Line | AUC (WHI-P97) | IC50 (WHI-P97) | AUC (QL-XI-92) | IC50 (QL-XI-92) | AUC (XL-184) | IC50 (XL-184) | AUC (Gefitinib) | IC50 (Gefitinib) | AUC (EHT 1864) | IC50 (EHT 1864) | AUC (NU-7441) | IC50 (NU-7441) | AUC (Phenformin) | IC50 (Phenformin) | AUC (Vinorelbine) | IC50 (Vinorelbine) | AUC (AG-014699) | IC50 (AG-014699)
CaR-1 (large intestine, adherent) | 0.962 | > 10.2 µM | 0.971 | > 10.2 µM | 0.965 | > 5.12 µM | 0.941 | > 0.5 µM | 0.885 | > 10 µM | 0.953 | > 2 µM | 0.833 | > 4000 µM | 0.806 | 0.0551 µM | 0.928 | > 5 µM
Capan-2 (pancreas, adherent) | 0.913 | > 10.2 µM | 0.965 | > 10.2 µM | 0.922 | > 5.12 µM | 0.967 | > 0.5 µM | 0.976 | > 10 µM | 0.983 | > 2 µM | 0.985 | > 4000 µM | 0.77 | 0.0296 µM | 0.985 | > 5 µM
D-392MG (glioma, adherent) | 0.961 | > 10.2 µM | 0.877 | > 10.2 µM | 0.802 | 3.66 µM | 0.954 | > 0.5 µM | 0.93 | > 10 µM | 0.96 | > 2 µM | 0.814 | 3230 µM | 0.823 | 0.0576 µM | 0.947 | > 5 µM
D-542MG (glioma, adherent) | 0.978 | > 10.2 µM | 0.98 | > 10.2 µM | 0.957 | > 5.12 µM | 0.982 | > 0.5 µM | 0.974 | > 10 µM | 0.984 | > 2 µM | 0.723 | 1250 µM | 0.896 | > 0.064 µM | 0.984 | > 5 µM
DBTRG-05MG (glioma, adherent) | 0.978 | > 10.2 µM | 0.95 | > 10.2 µM | 0.887 | > 5.12 µM | 0.961 | > 0.5 µM | 0.962 | > 10 µM | 0.978 | > 2 µM | 0.639 | 648 µM | 0.521 | 0.00462 µM | 0.955 | > 5 µM
DK-MG (glioma, adherent) | 0.929 | > 10.2 µM | 0.913 | > 10.2 µM | 0.655 | 1.07 µM | 0.973 | > 0.5 µM | 0.874 | > 10 µM | 0.948 | > 2 µM | 0.75 | 1910 µM | 0.975 | > 0.064 µM | 0.894 | > 5 µM
DMS-114 (small cell lung carcinoma, adherent) | 0.979 | > 10.2 µM | 0.969 | > 10.2 µM | 0.951 | > 5.12 µM | 0.963 | > 0.5 µM | 0.934 | > 10 µM | 0.954 | > 2 µM | 0.607 | 516 µM | 0.927 | > 0.064 µM | 0.983 | > 5 µM
DMS-273 (small cell lung carcinoma, adherent) | 0.947 | > 10.2 µM | 0.937 | > 10.2 µM | 0.844 | 3.98 µM | 0.96 | > 0.5 µM | 0.899 | > 10 µM | 0.975 | > 2 µM | 0.594 | 460 µM | 0.46 | 0.00309 µM | 0.973 | > 5 µM
DOK (head and neck, adherent) | 0.946 | > 10.2 µM | 0.976 | > 10.2 µM | 0.948 | > 5.12 µM | 0.513 | 0.0346 µM | 0.876 | > 10 µM | 0.916 | > 2 µM | 0.962 | > 4000 µM | 0.845 | > 0.064 µM | 0.959 | > 5 µM
Detroit562 (head and neck, adherent) | 0.982 | > 10.2 µM | 0.988 | > 10.2 µM | 0.975 | > 5.12 µM | 0.942 | > 0.5 µM | 0.924 | > 10 µM | 0.973 | > 2 µM | 0.831 | 2390 µM | 0.618 | 0.00831 µM | 0.973 | > 5 µM
DoTc2-4510 (cervix, adherent) | 0.941 | > 10.2 µM | 0.984 | > 10.2 µM | 0.958 | > 5.12 µM | 0.925 | > 0.5 µM | 0.969 | > 10 µM | 0.981 | > 2 µM | 0.37 | 112 µM | 0.501 | 0.00403 µM | 0.949 | > 5 µM
ECC10 (stomach, suspension) | 0.984 | > 10.2 µM | 0.934 | > 10.2 µM | 0.937 | > 5.12 µM | 0.949 | > 0.5 µM | 0.842 | 7.48 µM | 0.983 | > 2 µM | 0.856 | 3450 µM | 0.708 | 0.0159 µM | 0.933 | > 5 µM
EFM-192A (breast, adherent) | 0.971 | > 10.2 µM | 0.98 | > 10.2 µM | 0.929 | > 5.12 µM | 0.977 | > 0.5 µM | 0.952 | > 10 µM | 0.976 | > 2 µM | 0.861 | > 4000 µM | 0.555 | 0.00576 µM | 0.986 | > 5 µM
EFO-21 (ovary, adherent) | 0.95 | > 10.2 µM | 0.961 | > 10.2 µM | 0.936 | > 5.12 µM | 0.953 | > 0.5 µM | 0.949 | > 10 µM | 0.98 | > 2 µM | 0.839 | > 4000 µM | 0.74 | 0.0268 µM | 0.945 | > 5 µM
